Experimental data: PubChem BioAssay AID624417 (National Center for Advancing Translational Sciences (NCATS), 2012)
Out of some 410,000 compounds screened, about 6,400 (1.6%) were called active. The shares of active, inactive and inconclusive entries below differ from those in the screen. Calls follow the shape of the dose curve; as a rule, active = well fitted inhibition curve with a large enough effect; inconclusive = small, poorly fitted or top-dose-only effect; inactive = no such curve, though single readings can be large or run the other way. Where the call is inconclusive, the potency comes from a doubtful curve fit.
% is scaled to controls: 0 for no effect and ±100 for the full control effect; potency is read from the fitted curve at half-maximal effect; tags tell the direction and shape of the fitted curve.
Also: nearly all actives have a fitted effect of over 55% in size.

Each compound was assayed against Glucagon-like peptide 1 receptor (Homo sapiens) (UniProt P43220) (assay: qHTS of GLP-1 Receptor Inverse Agonists (Inhibition Mode)). Details: HEK293 GLP-1R CRE-luciferase, luminescence, 24 h, GLP-1R form is constitutively active; activity change, negative = inhibition: at 38.3 µM (top of the series) unless noted.
Sequence of UniProt P43220 (P43220 whole entry, looked up): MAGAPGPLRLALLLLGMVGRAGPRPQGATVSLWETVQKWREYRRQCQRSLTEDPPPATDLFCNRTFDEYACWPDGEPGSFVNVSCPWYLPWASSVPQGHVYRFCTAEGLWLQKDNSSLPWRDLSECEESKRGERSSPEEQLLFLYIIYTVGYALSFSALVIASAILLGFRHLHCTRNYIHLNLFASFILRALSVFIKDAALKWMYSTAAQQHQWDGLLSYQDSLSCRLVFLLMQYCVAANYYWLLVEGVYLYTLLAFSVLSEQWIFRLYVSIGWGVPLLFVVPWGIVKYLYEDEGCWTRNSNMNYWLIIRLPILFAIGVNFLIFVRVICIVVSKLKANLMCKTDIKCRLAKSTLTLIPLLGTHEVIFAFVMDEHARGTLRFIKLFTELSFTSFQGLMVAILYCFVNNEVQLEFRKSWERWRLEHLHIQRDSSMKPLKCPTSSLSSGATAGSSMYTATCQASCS
Summary of the method: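 Assay principle: reduced luminescence from a cAMP-responsive reporter in HEK293 cells co-expressing a constitutively active GLP-1R. Conditions: 24 hr compound incubation, 37 deg C, 5% CO2.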
For `CCC(C)Nc1nc(-c2ccc3c(c2)NC(=O)CO3)cs1` (stereo not given), the Potency was inconclusive: 28.2 µM [inhibitor, single point]. In the case of `OC1CCN(Cc2ccc(OCc3ccccc3)cc2)CC1`, the Potency is reported as inconclusive: 10 µM [inhibitor, partial curve, poor fit]. For `CCOc1cc(C(=O)Nc2ccc(-c3nc4cc(Cl)ccc4o3)cc2)cc(OCC)c1OCC`, the “activity change, negative = inhibition” value was inactive: -23.6%. With `O=C(Nc1ccc(N2CCOCC2)cc1)c1cnsn1` the Potency was inconclusive: 3.16 µM [inhibitor, full curve, poor fit]. `Cc1ccc(C)c(Cn2c3ccccc3c3cnn(CC(=O)NCCN4CCOCC4)c(=O)c32)c1` was tested, and the Potency was inconclusive: 28.2 µM [inhibitor, single point]. `O=C(CSc1nc2ccccc2c(=O)n1CCCN1CCOCC1)NC12CC3CC(CC(C3)C1)C2` was tested, and the Potency was inconclusive: 11.2 µM [inhibitor, partial curve, poor fit]. `c1ccc(CCN(Cc2ccccc2)C2CCN(C3CCCC3)CC2)cc1` was tested, and the Potency was inconclusive: 2.24 µM [inhibitor, full curve, poor fit]. With `O=[N+]([O-])c1ccc(N2CCN(Cc3ccc(Br)o3)CC2)cc1` the Potency was inconclusive: 25.1 µM [inhibitor, single point]. For `Cc1cccc(C(=O)N(Cc2ccco2)Cc2ccccc2F)c1`, the Potency was inconclusive: 14.1 µM [inhibitor, single point]. For `CCCc1nc2ccc(C)cn2c1Cc1cccc(F)c1`, the Potency was inconclusive: 28.2 µM [inhibitor, single point]. `CCc1ccc(C2Sc3ccccc3NC3=C2C(=O)c2ccccc23)cc1` (stereo not given) was tested, and the Potency was inconclusive: 14.1 µM [inhibitor, partial curve, poor fit]. `CCc1nc2ccccc2c(C(=O)OCc2nc3ccccc3c(=O)[nH]2)c1C` was tested, and the Potency was inconclusive: 28.2 µM [inhibitor, single point]. With `CCC(C(=O)NC1CCCCC1)n1c(SCc2ccc(F)cc2)nc2ccncc21` (stereo not given) the Potency was inconclusive: 28.2 µM [inhibitor, single point]. For `CSc1nc(N)c(C(=O)N(c2ccccc2)c2ccccc2)s1`, the Potency was inconclusive: 10 µM [inhibitor, partial curve, poor fit]. With `CCCCN(C)Cc1c(O)ccc2c(-c3ccccc3)cc(=O)oc12` the Potency was inconclusive: 1 µM [inhibitor, full curve, poor fit]. With `CC(CCN1CCN(CCO)CC1)c1ccccc1` (stereo not given) the “activity change, negative = inhibition” value was inactive: -0.943%. In the case of `COc1ccc(-c2cccc(NC(=O)COc3ccc(Cl)cc3)c2)nn1`, the Potency is reported as inconclusive: 11.2 µM [inhibitor, single point]. For `Nc1ncnc(N2CCc3ccccc32)c1[N+](=O)[O-]`, the activity change, negative = inhibition was inconclusive: -47.2% [inhibitor] [at 7.66 µM]. `CCOC(=O)N1CCN(Cc2nc(-c3ccc(Cl)cc3)no2)CC1` was tested, and the Potency was inconclusive: 28.2 µM [inhibitor, single point]. `COc1ccc2sc(N(CCCN(C)C)C(=O)c3ccc(S(=O)(=O)N4CCc5ccccc5C4)cc3)nc2c1` was tested, and the Potency was inconclusive: 14.1 µM [inhibitor, single point]. For `Cc1ccc(NC(=O)Cc2c(F)cccc2Cl)cc1S(=O)(=O)N1CCOCC1`, the Potency was inconclusive: 28.2 µM [inhibitor, single point]. For `O=C(CN1C(=O)NC2(CCCCCCC2)C1=O)Nc1cccc(Br)c1`, the Potency was inconclusive: 8.91 µM [inhibitor, partial curve, poor fit]. For `Cc1cccc(-c2nc(CSc3nncn4c3cc3oc(C)cc34)c(C)o2)c1`, the “activity change, negative = inhibition” value was inactive: 1.26%. With `CCCCN1C(=O)C(=O)NC[C@@H]1CC1CCCCC1` the Potency was inconclusive: 0.501 µM [inhibitor, full curve, poor fit]. In the case of `CCCOc1ccc(C(=O)CCNc2ccc(C)c(Cl)c2)cc1`, the “activity change, negative = inhibition” value is reported as inactive: 2.16%. `C=CC[C@@H](CC(=O)NCCO)C(=O)N[C@@H](COC(=O)[C@@H](CC=C)Cc1ccc(F)cc1)Cc1c[nH]c2ccccc12` was tested, and the Potency was inconclusive: 10 µM [inhibitor, partial curve, poor fit]. With `COc1cc2nc(CN3CCN(S(=O)(=O)c4ccccc4[N+](=O)[O-])CC3)[nH]c(=O)c2cc1OC` the “activity change, negative = inhibition” value was inactive: -1.8%. For `O=C(NNC(=O)C1CCCN(S(=O)(=O)c2ccc3ccccc3c2)C1)C1CC1` (stereo not given), the Potency was inconclusive: 10 µM [inhibitor, single point]. `CCn1c(C)nc2cc(S(=O)(=O)C(F)F)ccc21` was tested, and the “activity change, negative = inhibition” value was inactive: 3.92%. For `CCCN(CC(=O)c1cc(C)n(C)c1C)S(=O)(=O)c1cccc(C(F)(F)F)c1`, the Potency was inconclusive: 15.8 µM [inhibitor, partial curve, poor fit]. In the case of `O=C(CCl)NC(=O)NC12CC3CC(CC(C3)C1)C2`, the “activity change, negative = inhibition” value is reported as inactive: 0.799%. With `COc1ccc(-c2cc(NC=O)c3ncc(-c4cccc(C(F)(F)F)c4)n3c2)cc1OC` the Potency was inconclusive: 28.2 µM [inhibitor, single point]. In the case of `COc1cc(NS(=O)(=O)c2ccc(NC(=O)COc3ccccc3Cl)cc2)nc(OC)n1`, the Potency is reported as inconclusive: 28.2 µM [inhibitor, single point]. For `O=C(c1ccco1)N1CCN(C(=O)C2CC(=O)N(c3ccc(Cl)cc3)C2)CC1` (stereo not given), the “activity change, negative = inhibition” value was inactive: -15.3%. With `O=C(CN1C(=O)C2CC=CCC2C1=O)Nc1nc(-c2ccc(F)c(F)c2)cs1` (stereo not given) the Potency was inconclusive: 1.58 µM [inhibitor, partial curve, poor fit]. `Cc1cccc(NCc2nc3ccccc3n2CCOc2ccccc2C)c1` was tested, and the Potency was inconclusive: 14.1 µM [inhibitor, single point]. In the case of `Cc1cccc(C)c1NC(=S)NC(C)CCc1ccccc1` (stereo not given), the Potency is reported as inconclusive: 11.2 µM [inhibitor, partial curve, poor fit]. With `Cc1ccc(OCc2nc(-c3cccs3)no2)c([N+](=O)[O-])c1` the Potency was inconclusive: 8.91 µM [inhibitor, single point]. For `CC(C)c1ccc(-c2nnc3n(CCc4ccccc4)c(=O)c4ccccc4n23)cc1`, the “activity change, negative = inhibition” value was inactive: 7.65%. `CCN(CC)c1ccc(NC(=O)c2ccc3c(c2)OCO3)cc1` was tested, and the Potency was inconclusive: 11.2 µM [inhibitor, partial curve, poor fit]. For `CN(CCOc1ccccc1)C(=O)CNC(=O)c1ccc(C(C)(C)C)cc1`, the Potency was inconclusive: 11.2 µM [inhibitor, partial curve, poor fit]. With `COc1cccc2cc(CC(=O)c3ccc(C)cc3C)c(=O)oc12` the Potency was inconclusive: 12.6 µM [inhibitor, single point]. In the case of `O=C(OCCc1cc2ccccc2c(=O)o1)c1cccc(Br)c1`, the Potency is reported as inconclusive: 28.2 µM [inhibitor, single point]. `O=C(CCN1CCN(c2ccccc2F)CC1)Nc1ccccc1Cl` was tested, and the “activity change, negative = inhibition” value was inactive: -2.6%. In the case of `O=C(COc1ccccc1-c1nnc(-c2ccccc2)o1)Nc1ccc(Br)cc1F`, the “activity change, negative = inhibition” value is reported as inactive: -14.9%. For `Cc1ccccc1N1CCN(C2CCCN(C(=O)c3cc(C(C)C)[nH]n3)C2)CC1` (stereo not given), the Potency was inconclusive: 11.2 µM [inhibitor, single point]. In the case of `CCC(=O)N1CCc2cc(S(=O)(=O)NCCC(=O)Nc3ccc(C)cc3)ccc21`, the “activity change, negative = inhibition” value is reported as inactive: 11.5%. `CC(C)OC(=O)CSc1nc(Cc2cccs2)nc2ccccc12` was tested, and the Potency was inconclusive: 31.6 µM [inhibitor, single point]. With `FC(F)C(F)(F)c1cc(-c2ccccc2)n[nH]1` the Potency was inconclusive: 10 µM [inhibitor, partial curve]. With `Clc1ccccc1OCCCCN1CCNCC1` the Potency was inconclusive: 10 µM [inhibitor, partial curve, poor fit]. In the case of `C=C(C)COc1ccc(-c2ncnc(C(F)(F)F)c2-c2ccc(OC)cc2)c(O)c1`, the Potency is reported as active: 7.94 µM. With `CN(CC(=O)Nc1cccc(F)c1)C(=O)c1cc(S(=O)(=O)N2CCN(c3ccccc3)CC2)ccc1Cl` the Potency was inconclusive: 17.8 µM [inhibitor, partial curve, poor fit]. With `CCC(C)c1ccccc1N1CC(C(=O)N(C)CC(=O)Nc2cccc(F)c2)CC1=O` (stereo not given) the Potency was inconclusive: 11.2 µM [inhibitor, partial curve, poor fit]. With `CCn1c(CN2CCC(C)CC2)nc2cc(S(=O)(=O)N3CCCCC3)ccc21` the Potency was inconclusive: 28.2 µM [inhibitor, single point]. For `CCCCCCCCOC(=O)c1c(CSC(=N)N)n(C)c2cc(Br)c(OC(C)=O)cc12`, the Potency was inconclusive: 12.6 µM [inhibitor, single point]. For `CC(C)CN1C(=O)/C(=C/c2cccs2)NC1=S`, the Potency was inconclusive: 12.6 µM [inhibitor, single point]. In the case of `COc1cccc(C=Nc2ccccc2C(=O)Nc2ccccc2)c1O`, the “activity change, negative = inhibition” value is reported as inactive: 20.6%. With `CC1CCN(c2ccc([N+](=O)[O-])c(SCCO)c2)CC1` the Potency was inconclusive: 7.08 µM [inhibitor, partial curve]. `Cc1ccc(S(=O)(=O)N(CCCc2c(C)nc[nH]c2=O)c2ccccc2)cc1` was tested, and the “activity change, negative = inhibition” value was inactive: -6.62%. With `COc1ccc(C(=O)N(CCc2ccccc2)Cc2cccs2)c(OC)c1` the Potency was inconclusive: 7.94 µM [inhibitor, partial curve, poor fit]. With `CC1(C(=O)OCC(=O)Nc2ccc(Cl)cn2)CC1(Cl)Cl` (stereo not given) the Potency was inconclusive: 12.6 µM [inhibitor, single point]. `Cc1cc(C)cc(N(CC(=O)NCCSc2ccccn2)S(=O)(=O)c2ccccc2)c1` was tested, and the Potency was inconclusive: 31.6 µM [inhibitor, partial curve, poor fit]. With `O=C1CCN(CCc2ccccc2)CCN1[C@H](CSc1ccccc1)Cc1ccccc1` the Potency was inconclusive: 14.1 µM [inhibitor, single point]. With `Cc1cc(=O)oc2c(C)c(OCC(=O)N3CCN(c4ccccc4)CC3)ccc12` the “activity change, negative = inhibition” value was inactive: 3.26%. `CS(=O)(=O)N(CC(=O)Nc1ccccc1)c1cccc(Cl)c1Cl` was tested, and the Potency was inconclusive: 10 µM [inhibitor, partial curve].
